In publication PMC5550436:
Numbering of substitutions follows the chain as printed. Numbers in names are those of the source. Results are given in words; binding and its absence hold for the method and conditions named. Binding seen in cells or lysates may run through a third protein. Some entries that bind do so weakly or less than the wild type. Where a sequence is shown, tags or fusion partners need not be part of it. One block for each binder: values may come before it.

How the values were obtained:
[1] = biological target: T1, MBP-tagged enzymatically inactive CCP2 mutant (H425S and E428Q) (mouse) (UniProt Q8CDK2); experiment: pull-down; MBP-CCP2-wt or MBP-CCP2-mut incubated with BM lysates; only the target purified
T1 sequence: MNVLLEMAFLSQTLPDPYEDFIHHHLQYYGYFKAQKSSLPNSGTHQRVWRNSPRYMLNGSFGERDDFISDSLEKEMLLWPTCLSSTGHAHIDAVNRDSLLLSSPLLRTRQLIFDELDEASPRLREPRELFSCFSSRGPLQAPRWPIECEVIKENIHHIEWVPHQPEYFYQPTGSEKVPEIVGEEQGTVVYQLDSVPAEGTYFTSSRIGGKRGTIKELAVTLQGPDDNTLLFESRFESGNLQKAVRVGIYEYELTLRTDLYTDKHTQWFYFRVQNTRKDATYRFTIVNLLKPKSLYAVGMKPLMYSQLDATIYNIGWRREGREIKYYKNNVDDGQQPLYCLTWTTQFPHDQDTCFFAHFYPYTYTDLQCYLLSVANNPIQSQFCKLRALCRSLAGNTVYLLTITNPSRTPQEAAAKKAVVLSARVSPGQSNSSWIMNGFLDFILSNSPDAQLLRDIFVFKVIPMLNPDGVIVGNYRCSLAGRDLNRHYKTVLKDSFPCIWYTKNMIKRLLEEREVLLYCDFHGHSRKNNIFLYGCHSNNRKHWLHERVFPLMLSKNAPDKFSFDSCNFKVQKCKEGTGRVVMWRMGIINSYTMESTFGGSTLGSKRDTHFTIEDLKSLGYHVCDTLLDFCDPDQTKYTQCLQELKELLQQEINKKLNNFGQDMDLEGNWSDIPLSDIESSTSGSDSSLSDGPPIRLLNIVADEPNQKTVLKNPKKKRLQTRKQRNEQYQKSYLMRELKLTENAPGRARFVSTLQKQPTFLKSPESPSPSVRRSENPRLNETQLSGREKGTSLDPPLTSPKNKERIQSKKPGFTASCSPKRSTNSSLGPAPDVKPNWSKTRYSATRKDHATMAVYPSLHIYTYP

[2] = biological target: T2, MBP-tagged wild-type CCP2 (enzymatically active) (mouse) (UniProt Q8CDK2); experiment: as above
T2 sequence: T1 sequence with S425H, Q428E

[3] = biological target: T3, Flag-tagged TTLL13 (mouse) (UniProt A4Q9F6); experiment: co-IP; Myc-IL-7Rα with Flag-TTLL4 or Flag-TTLL13 co-transfected in 293T cells for 36 h, followed by immunoblotting
T3 sequence: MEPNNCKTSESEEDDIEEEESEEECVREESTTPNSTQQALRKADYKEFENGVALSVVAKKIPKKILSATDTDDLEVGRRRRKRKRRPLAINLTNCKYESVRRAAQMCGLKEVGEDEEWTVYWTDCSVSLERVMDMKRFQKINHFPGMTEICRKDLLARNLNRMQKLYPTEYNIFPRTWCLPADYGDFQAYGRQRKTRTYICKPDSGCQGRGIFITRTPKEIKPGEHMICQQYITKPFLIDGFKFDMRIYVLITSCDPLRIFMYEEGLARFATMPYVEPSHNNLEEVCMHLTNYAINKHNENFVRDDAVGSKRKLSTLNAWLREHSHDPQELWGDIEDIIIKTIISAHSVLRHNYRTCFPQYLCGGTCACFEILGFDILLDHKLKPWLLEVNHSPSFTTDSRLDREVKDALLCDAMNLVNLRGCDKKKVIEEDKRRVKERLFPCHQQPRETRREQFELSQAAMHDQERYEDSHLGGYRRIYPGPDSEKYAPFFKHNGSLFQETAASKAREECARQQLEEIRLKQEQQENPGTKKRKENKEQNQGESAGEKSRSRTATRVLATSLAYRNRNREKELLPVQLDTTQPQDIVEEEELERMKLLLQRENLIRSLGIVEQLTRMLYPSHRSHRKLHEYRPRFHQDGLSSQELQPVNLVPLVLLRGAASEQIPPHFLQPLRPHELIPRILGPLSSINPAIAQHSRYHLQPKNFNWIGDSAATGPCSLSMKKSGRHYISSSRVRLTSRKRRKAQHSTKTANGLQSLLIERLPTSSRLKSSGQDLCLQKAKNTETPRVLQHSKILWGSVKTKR

[4] = biological target: T4, Flag-tagged TTLL4 (mouse) (UniProt Q80UG8); experiment: as above
T4 sequence: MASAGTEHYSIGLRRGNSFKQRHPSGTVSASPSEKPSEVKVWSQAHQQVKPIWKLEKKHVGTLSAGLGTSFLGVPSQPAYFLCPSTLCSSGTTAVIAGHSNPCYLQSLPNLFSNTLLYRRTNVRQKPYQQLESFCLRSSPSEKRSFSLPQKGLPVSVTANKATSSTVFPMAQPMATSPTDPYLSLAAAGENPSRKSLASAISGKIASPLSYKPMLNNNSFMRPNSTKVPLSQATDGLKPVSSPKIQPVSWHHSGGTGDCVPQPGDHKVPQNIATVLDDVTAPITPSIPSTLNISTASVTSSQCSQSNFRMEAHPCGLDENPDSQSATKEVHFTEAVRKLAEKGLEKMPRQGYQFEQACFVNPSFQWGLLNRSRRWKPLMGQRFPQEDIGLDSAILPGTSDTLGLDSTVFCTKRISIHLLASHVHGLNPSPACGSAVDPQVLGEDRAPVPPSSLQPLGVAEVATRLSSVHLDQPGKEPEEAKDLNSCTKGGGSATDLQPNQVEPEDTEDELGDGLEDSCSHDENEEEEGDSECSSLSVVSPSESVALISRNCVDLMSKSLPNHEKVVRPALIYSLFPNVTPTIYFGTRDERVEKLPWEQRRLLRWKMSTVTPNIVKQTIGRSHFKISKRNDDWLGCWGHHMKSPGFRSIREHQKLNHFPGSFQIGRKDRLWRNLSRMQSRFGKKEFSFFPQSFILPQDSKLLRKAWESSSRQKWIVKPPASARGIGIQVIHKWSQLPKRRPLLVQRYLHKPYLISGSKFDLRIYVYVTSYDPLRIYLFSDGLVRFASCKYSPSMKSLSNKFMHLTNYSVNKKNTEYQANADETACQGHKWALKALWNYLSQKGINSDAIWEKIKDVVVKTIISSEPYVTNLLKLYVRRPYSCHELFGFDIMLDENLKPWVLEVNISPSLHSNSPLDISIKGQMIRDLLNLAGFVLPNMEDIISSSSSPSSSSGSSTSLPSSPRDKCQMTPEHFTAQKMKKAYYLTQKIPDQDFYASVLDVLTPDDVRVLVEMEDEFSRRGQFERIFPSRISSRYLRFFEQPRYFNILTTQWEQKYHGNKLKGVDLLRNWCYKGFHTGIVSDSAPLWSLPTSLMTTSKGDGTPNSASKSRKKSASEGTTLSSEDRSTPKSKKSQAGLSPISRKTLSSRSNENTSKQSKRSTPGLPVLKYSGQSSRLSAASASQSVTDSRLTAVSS

[5] = biological target: T5, Myc-tagged extracellular segment (amino acid: 21-239) of IL-7Rα (mouse) (UniProt P16872); experiment: co-IP; Myc-tagged IL-7Rα segment and Flag-tagged CCP2 co-transfected in 293T cells for 36 h; lysates immunoprecipitated with anti-Myc antibody
T5 sequence: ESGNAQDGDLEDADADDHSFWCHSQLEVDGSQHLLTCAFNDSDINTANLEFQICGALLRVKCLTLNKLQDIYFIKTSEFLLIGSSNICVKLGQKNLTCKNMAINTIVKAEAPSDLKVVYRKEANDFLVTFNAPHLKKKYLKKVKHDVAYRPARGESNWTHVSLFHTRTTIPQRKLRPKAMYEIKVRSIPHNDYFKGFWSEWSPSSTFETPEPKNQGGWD

[6] = biological target: T6, Myc-tagged intracellular segment (amino acid: 265-459) of IL-7Rα (mouse) (UniProt P16872); experiment: as above
T6 sequence: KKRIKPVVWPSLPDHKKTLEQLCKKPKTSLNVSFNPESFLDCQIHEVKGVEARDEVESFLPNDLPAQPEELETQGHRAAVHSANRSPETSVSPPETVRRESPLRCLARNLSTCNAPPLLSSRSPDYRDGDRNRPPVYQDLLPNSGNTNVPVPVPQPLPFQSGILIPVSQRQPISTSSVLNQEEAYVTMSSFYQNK

binding [1]: binds | binding [2]: no binding
B1: native IL-7Rα from mouse bone marrow lysates (receptor, UniProt P16872 21-459)
chain: ESGNAQDGDLEDADADDHSFWCHSQLEVDGSQHLLTCAFNDSDINTANLEFQICGALLRVKCLTLNKLQDIYFIKTSEFLLIGSSNICVKLGQKNLTCKNMAINTIVKAEAPSDLKVVYRKEANDFLVTFNAPHLKKKYLKKVKHDVAYRPARGESNWTHVSLFHTRTTIPQRKLRPKAMYEIKVRSIPHNDYFKGFWSEWSPSSTFETPEPKNQGGWDPVLPSVTILSLFSVFLLVILAHVLWKKRIKPVVWPSLPDHKKTLEQLCKKPKTSLNVSFNPESFLDCQIHEVKGVEARDEVESFLPNDLPAQPEELETQGHRAAVHSANRSPETSVSPPETVRRESPLRCLARNLSTCNAPPLLSSRSPDYRDGDRNRPPVYQDLLPNSGNTNVPVPVPQPLPFQSGILIPVSQRQPISTSSVLNQEEAYVTMSSFYQNK

binding [3]: binds | binding [4]: binds
B2: Myc-tagged intracellular segment (amino acid: 265-459) of IL-7Rα (domain or fragment, UniProt P16872 265-459)
chain: T6 sequence

binding [5]: no binding | binding [6]: binds
B3: Flag-tagged enzymatic dead CCP2 (H425S and E428Q) (enzyme, UniProt Q8CDK2 1-862)
chain: T1 sequence
